# ± gives the standard deviation of the averaged measurements. The list shows a part of the results.
# System: PfAP2-EXP AP2 domain (GST-tagged)
# Assay: gcPBM binding intensity (ln(normalized median fluorescence intensity)); higher = stronger DNA binding
# Outline: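 Binding of GST-tagged P. falciparum DNA-binding domains, expressed in E. coli and used at about 25 μg on average, was carried out for 1 h in 1× PBS containing 1% milk, 0.2 mg/ml BSA, 0.5% salmon testes DNA and 0.03% Triton X-100. The target was an Agilent 4 × 180k array of primer-extended double-stranded 36-bp intergenic genomic probes plus negative controls, read with Alexa488 anti-GST antibody at 488 nm. Binding intensity is the highest Masliner-normalised natural-log median intensity across replicate spots of either probe orientation.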
row,Sequence,gcPBM binding intensity (ln)
1,AGCTATAATAAATATACACACATATATAAATATGTA [CACACA_site6583],8.1 ± 0.36
2,ATATATATATAATAAGTGCAAAAATAATGACCTATA,9.48 ± 0.099
3,TATATATTTTTATGCACACACAAAGAAAATTTTCCT [CACACA_site2863],8.765 ± 0.078
4,AAAAAAAATTAAAATAAAATATAAATATAAAATATA [GTGCAC_negctrl_site714],8.23 ± 0.24
5,AAAGTATAACGGATACCATTTATGTGATTATTTTGT [XGTACX_negctrl_site188],8.46 ± 0.35
6,AATATATAATTAATTGCACACCTTGTCACGCCAAAA [CACACA_site1174],8.64 ± 0.32
7,ATTTACCCTTGCCATGCACACTTTTTTATAGAAAAT [CACACA_site5857],9.13 ± 0.44
8,TATTAATACAGACACACACACACACTAATTAAAATA [CACACA_site7967],8.73 ± 0.47
9,GAATGAATACGTTTTACACACTTGAATATAATTTCA [CACACA_site989],8.5 ± 0.28
10,ATATATAAATTTAATACACACCCAAAAAAAAAAAAA [CACACA_site7719],8.4 ± 0.61
11,AAAATTATAAAATGGGCACACATGAAGATTGTAGTA [CACACA_site2226],8.78 ± 0.49
12,TAAATATATAAACACACACACATTAATACAGATATT [CACACA_site5851],8.74 ± 0.59
13,TTATTTATTTTTTCATGTACTTAAATATATTAATGT [XGTACX_site5804],8.64 ± 0.4
14,ATCTATATTTTTATAACACACAATGATGTACATTAC [CACACA_site6633],8.64 ± 0.33
15,TAGAATAATCTATAAACACACAAACCCAACAAAAGA [CACACA_site6132],8.97 ± 0.63
16,TGAAAATATTTTATATGTACATATATTATCAATACA [XGTACX_site92],8.6 ± 0.37
17,TTATTAGGTATATATGCACACAATACCCAAAACAAC [CACACA_site4221],8.87 ± 0.099
18,GGTAATAAACAATGAAGTACGTAAAGGTAAAATATT [XGTACX_site2647],9.33 ± 0.51
19,TATTTTCAAAAATATACACACACATAAATATATGTA [CACACA_site8160],8.18 ± 0.33
20,TGTAAATATAAATGTAATAAATATGTAAAAATAAAT [XGTACX_negctrl_site171],8.62 ± 0.32
21,TAATAATCAAACTATACACACATAAATAGATATATA [CACACA_site6220],8.42 ± 0.33
22,ATTTAATTTTCATGATGTACTATAGTTTAATGCACA [XGTACX_site1624],9.14 ± 0.042
23,TTATATGTATTTCTTTGTACACATTTTTATATATAT [XGTACX_site1462],9.01 ± 0.41

row,Sequence,gcPBM binding intensity (ln)
1,ATTATGCACCAACACACACACACACCCCTAAAAAAT [CACACA_site2568],9.43 ± 0.16
2,CACTTCAAAAAAATATGTACACATATATATATATAT [XGTACX_site3075],10.1 ± 0.25
3,TATCATTTTTTTAAAACACACATAATAATATAAATA [CACACA_site2845],8.4 ± 0.38
4,TAAATTTTATAAATCTGTACATATGAGCAAGAACAT [XGTACX_site7400],9.25 ± 0.34
5,TAAAGAGTTACCATTTGTACTTACGCACACATAAAA [XGTACX_site3145],8.45 ± 0.37
6,TTTTTATGTTATCAAATAAATATAAATATAATTCAT [CACACA_negctrl_site1522],7.93 ± 0.5
7,TATATTTGAAATATATGTACTTATAATACAGTTTAA [XGTACX_site8039],8.25 ± 0.4
8,CACAGATAAATTAACACACACACACGGATATTTATA [CACACA_site7788],8.36 ± 0.26
9,TTCCTTCAAAATTTAAGTAATAAGATAAAAATATAA [CACACA_negctrl_site1696],8.28 ± 0.47
10,ATGTATACAAATATATGTACGTATGTTCTCTTCTTT [XGTACX_site7865],8.73 ± 0.46
11,TTTTTTTTTTATACATGTACTTAAAAGTAGCACCTT [XGTACX_site1855],8.73 ± 0.37
12,TGATTCAATTTATGCACACTAAAAATTAATTATATT [CACACA_site271],8.435 ± 0.035
13,GACATTAATTATTTGACACACGACTGGGTGGTGATT [CACACA_site306],8.44 ± 0.47
14,TTTGTAAAAGGTCATACACACATATTCAAAAGAAGT [CACACA_site2947],8.79 ± 0.35
15,ATTATATATACAACAAGTACAAAAGAAAAATATTAT [XGTACX_site2914],8.82 ± 0.49
16,TATAAATACATCCTATACTTCTCTTTTACAGTTTTA [CACACA_negctrl_site1283],8.71 ± 0.37
17,TTTTATGTTTTTTTTATAAATATTAAAATTCTATAT [CACACA_negctrl_site1477],8.28 ± 0.3
18,ATATATATATATAATTGTACATTTTTAACCTTAACA [XGTACX_site7910],9.97 ± 0.17
19,AATGTTAAAAATGAAAGTACATGGAATTTATTATTT [XGTACX_site4095],8.38 ± 0.23
20,ATATTGTTATATGTTTGTACATATTTTTTATATTTT [XGTACX_site6834],8.93 ± 0.91
21,AAAAAAAAAAAATACACACACACATATAAATATGTA [CACACA_site6900],8.27 ± 0.6
22,GTTTATATATGCTTATAATTTTCAATTGTTTTACAA [TGCATGCA_negctrl_site384],8.63 ± 0.4
23,TGTGTGGATATATGTATGCACTACCCTTTGGGTCAT [GTGCAC_site9506],8.41 ± 0.18

row,Sequence,gcPBM binding intensity (ln)
1,ATATATTGAACCTATGCATGTAAAATATATGTAATA [TGCATGCA_site644],8.72 ± 0.39
2,AAATATTAAATGGAAAACAAATATATATATCTTAAT [XGTACX_negctrl_site383],8.56 ± 0.38
3,ATATATATATATAGGAGTACATGAAATACTTAAAAA [XGTACX_site8851],10 ± 0.21
4,AAAAAAGAAATAATCAAATAAATAAAAAAGATGAAT [XGTACX_negctrl_site607],8.84 ± 0.59
5,GTGTGAAGATATAAATGCATTTTTTTATACATTTTC [CACACA_negctrl_site117],8.55 ± 0.38
6,TGTAAGTATTCTTGAGGTACACATATAAATATAGTA [XGTACX_site3207],8.33 ± 0.33
7,AATATTATATAATAAAGTACATATATATTCATATTT [XGTACX_site7204],8.26 ± 0.28
8,TATTTATACATACGTACACACAAATATTAAAATATA [CACACA_site7004],8.69 ± 0.4
9,TTTTTTTTTTTCTCCATACACACTTGATAAAACTTT [CACACA_site615],8.67 ± 0.52
10,ATTTTTTTTTTTTGTACATACCACATATACAAAACA [CACACA_negctrl_site1240],8.79 ± 0.35
11,TAATTGATTCTTCACCGTACTCACACATATATATAT [XGTACX_site6530],9.61 ± 0.14
12,CACACCACCAACAAAAGTACATACATATATATATAT [XGTACX_site5781],10.2 ± 0.68
13,TATATATTGCCCTTCACACACACACCCATATATATA [CACACA_site2493],9.06 ± 0.42
14,ATATATTATAAATGTAGTACCGTTACATAGTCATAG [XGTACX_site390],8.76 ± 0.41
15,ATCAAGCACGAACACACACACACACGCACGCCCACA [CACACA_site6308],8.85 ± 0.57
16,ACTACGAGTCGTAGAGTGCAGTCTGGAGAAAAGTAC [GTGCAC_site9769],9.35 ± 0.42
17,TTTTGATTTTTTTATTGTACCCATAAACATATAATT [XGTACX_site5202],8.69 ± 0.24
18,GGTATTTATGGACGCGTGCACACACATATGAACAAA,9.02 ± 0.3
19,TACAAACAATTAAACAAACACACATATACATGTATA [CACACA_site2061],8.59 ± 0.35
20,TATTTTTGAAGTTGCACACACAAAAATAAAAAGTAT [CACACA_site418],8.69 ± 0.39
21,ATATTTACTCACGTCTTGCACTGAGCAAGCATTATA,8.63 ± 0.29
22,TCATGTTTTTAATATTGTACTCTCATTTTATATATC [XGTACX_site8412],8.64 ± 0.28
23,AGCTATTAATTTATTACATGCAAGATTAAAAGACTA [TGCATGCA_site281],8.87 ± 0.23

row,Sequence,gcPBM binding intensity (ln)
1,CTATCAAATAATAGCAAACACACAAAAAATAAAAAA [CACACA_site4147],8.62 ± 0.45
2,AAAAAAAAAAAAAAATCACACATTGGTTAAATATTA [CACACA_site5344],8.2 ± 0.43
3,ATTCATACATGCACACGTACATATTTAAATATAAAA [XGTACX_site8388],8.91 ± 0.38
4,ATTTTTTATGAAAACATAAAAAAATGAGATAACCAT [CACACA_negctrl_site894],8.53 ± 0.41
5,AAAAAAAAAAGACACACACACACACGGACACATACA [CACACA_site7363],8.84 ± 0.52
6,TATAAATCTATAAATGCACACAAGGGAAGAAAAACG [CACACA_site2965],9.29 ± 0.42
7,AAAGAACAAATAAAACATAAAATAATATATATAGAT [CACACA_negctrl_site1764],8.88 ± 0.3
8,TATTATTCCAAGAAAAAAAAAAATAAAAAAAAAAAA [CACACA_negctrl_site1424],8.23 ± 0.39
9,CAAACAATTAAACAAACACACATATACAAGTATATA [CACACA_site8639],8.38 ± 0.36
10,ATTAAAATTTGTTAAAGTACTTAATAAAAATTTTTC [XGTACX_site1959],8.32 ± 0.38
11,AATGACTACATAATAGTGCAATATTAAAGAAAATTA,8.74 ± 0.13
12,ATTCTTAAAAAAAAATGTACACATGAACAATATGTA [XGTACX_site362],8.43 ± 0.23
13,TGTATATCATAAGATGGTACACGTGTGTGCGTATGC [XGTACX_site2255],9.06 ± 0.4
14,TTTAAGATTTTGTAATGTACATATATACATATATAT [XGTACX_site399],8.45 ± 0.33
15,TATATATTATATATGTGTACTCACTAACAAAAATTA [XGTACX_site6285],8.38 ± 0.38
16,AGGTGAATATTTTTTACACACATAAAAAAAATATAT [CACACA_site57],8.55 ± 0.45
17,TATATTTTTATAATAACACACGATATATGTTTAGGA [CACACA_site1283],8.33 ± 0.26
18,AAATTATATAAAGGAACACACATTTTATTTTATTTT [CACACA_site1500],8.2 ± 0.43
19,ATAATATTGTGGTATACACACCTTACAAAAAGGTAC [CACACA_site5582],8.74 ± 0.3
20,AATATTTTTATATATATACACACTTACATATATATA [CACACA_site3609],8.45 ± 0.54

# From the supplement of paper PMC11417369
